Test results: the supplement of paper PMC12217912
The list shows a part of the results. The full chains were built here from the parent and the listed change. Values near 0.05 are background.

B1: TEV protease; numbered along this chain (parent)
chain: MGESLFKGPRDYNPISSSICHLTNESDGHTTSLYGIGFGPFIITNKHLFRRNNGTLVVQSLHGVFKVKDTTTLQQHLVDGRDMIIIRMPKDFPPFPQKLKFREPQREERICLVTTNFQTKSMSSMVSDTSCTFPSGDGIFWKHWIQTKDGQCGSPLVSTRDGFIVGIHSASNFTNTNNYFTSVPKNFMELLTNQEAQQWVSGWRLNADSVLWGGHKVFMVKPEEPFQPVKEATQL

Variants of: B1
Assay: raw area under fraction-flipped curve 0-4 h after induction (AUC4h, not background-subtracted), DNA-recorder readout of cleavage of the substrate (dimensionless); higher = more cleavage of the substrate by the protease variant
Settings: temperature: 34 °C; time window: 0-4 h after rhamnose induction
Experimental: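 In vivo DNA recorder in E. coli TOP10(DE3) ΔrhaA at 34 °C. Each TEVp single-site mutant (parent TEVp 0) is paired with a single-site variant of the 7-mer TEVs (canonical ENLYFQ|S). The substrate sits between flexible linkers in a Bxb1-sfGFP-TEVs-SsrA fusion, so cleavage stabilises Bxb1 and speeds flipping of a recombination array, read by NGS. The value is the raw area under the fraction-flipped curve over 0-4 h after rhamnose induction (AUC4h), with ≥20 reads per time point. It is not background-subtracted; inactive controls average about 0.047.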
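Further: Bxb1 expression induced with 0.2% (w/v) L-rhamnose at OD600 near 0.5, cultures sampled hourly, flipped fraction per protease–substrate barcode pair counted by paired-end Illumina sequencing.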

Variant	area with substrate ENLYFAS	area with substrate ENLYFCS	area with substrate ENLYFDS	area with substrate ENLYFES	area with substrate ENLYFFS	area with substrate ENLYFGS	area with substrate ENLYFHS	area with substrate ENLYFIS	area with substrate ENLYFKS	area with substrate ENLYFLS	area with substrate ENLYFNS	area with substrate ENLYFPS	area with substrate ENLYFRS	area with substrate ENLYFSS	area with substrate ENLYFTS	area with substrate ENLYFVS	area with substrate ENLYFYS	area with substrate ENLYFMS	area with substrate ENLYFWS
MGESLFKGPRDYNPISSSICHLTNESDGHTTSLYGIGFGPFIITNKHLFRRNNGTLVVQSLHGVFKVKDTTTLQQHLVDGRDMIIIRMPKDFPPFPQKLKFREPQREERICLVTTNFQTKSMSSMVSDTSCTFPSGDGIFWKHWIQTKDGQCGSPLVSTRDGFIVGIHSASNFTNTNNYFTSVPKNFMELLTNQEAQQWVSGWRLNADSVLWGGHKVFMVKPEEPFQPVKEATWL [Q234W]	0.0634	0.0585	0.0638	0.0626	0.0618	0.0613	0.0478	0.048	0.0551	0.034	0.06	0.0593	0.068	0.0657	0.0413	0.0488	0.0641	–	–
MGESLFKGPRDYNPISSSICHLTNESDGHTTSLYGIGFGPFIITNKCLFRRNNGTLVVQSLHGVFKVKDTTTLQQHLVDGRDMIIIRMPKDFPPFPQKLKFREPQREERICLVTTNFQTKSMSSMVSDTSCTFPSGDGIFWKHWIQTKDGQCGSPLVSTRDGFIVGIHSASNFTNTNNYFTSVPKNFMELLTNQEAQQWVSGWRLNADSVLWGGHKVFMVKPEEPFQPVKEATQL [H47C]	–	0.0558	–	0.0691	0.0718	0.0581	–	0.0528	0.0606	0.0691	0.0624	0.053	–	0.0541	0.049	–	0.0473	0.0542	–
MGESLFKGPRDYNPISSSICHLTNESDGHTTSLYGIWFGPFIITNKHLFRRNNGTLVVQSLHGVFKVKDTTTLQQHLVDGRDMIIIRMPKDFPPFPQKLKFREPQREERICLVTTNFQTKSMSSMVSDTSCTFPSGDGIFWKHWIQTKDGQCGSPLVSTRDGFIVGIHSASNFTNTNNYFTSVPKNFMELLTNQEAQQWVSGWRLNADSVLWGGHKVFMVKPEEPFQPVKEATQL [G37W]	–	0.0634	0.0426	0.0523	0.0662	–	0.0623	0.0566	0.0767	0.0669	0.0528	0.05	0.0621	0.0488	0.0534	–	–	0.0681	0.0593
MGESLFKGPRDYNYISSSICHLTNESDGHTTSLYGIGFGPFIITNKHLFRRNNGTLVVQSLHGVFKVKDTTTLQQHLVDGRDMIIIRMPKDFPPFPQKLKFREPQREERICLVTTNFQTKSMSSMVSDTSCTFPSGDGIFWKHWIQTKDGQCGSPLVSTRDGFIVGIHSASNFTNTNNYFTSVPKNFMELLTNQEAQQWVSGWRLNADSVLWGGHKVFMVKPEEPFQPVKEATQL [P14Y]	–	0.0835	–	0.0604	0.097	–	0.0612	0.0614	0.0421	0.0637	–	0.0754	0.0709	–	0.0618	0.0527	0.0647	0.0691	0.0605
MGESLFKGPRDYNPISSSICHLTNESDGHTTSLYGIGFGPFIETNKHLFRRNNGTLVVQSLHGVFKVKDTTTLQQHLVDGRDMIIIRMPKDFPPFPQKLKFREPQREERICLVTTNFQTKSMSSMVSDTSCTFPSGDGIFWKHWIQTKDGQCGSPLVSTRDGFIVGIHSASNFTNTNNYFTSVPKNFMELLTNQEAQQWVSGWRLNADSVLWGGHKVFMVKPEEPFQPVKEATQL [I43E]	–	0.0428	0.0477	0.0409	0.0553	0.0392	0.02	0.0467	0.0448	0.0175	0.0505	0.0485	0.0514	0.0451	0.0413	–	0.0481	0.0454	0.039
MGESLFKGPRDYNPISSSICHLTNESDGHTTSLYGIGFGPFIITNKHLFRRNCGTLVVQSLHGVFKVKDTTTLQQHLVDGRDMIIIRMPKDFPPFPQKLKFREPQREERICLVTTNFQTKSMSSMVSDTSCTFPSGDGIFWKHWIQTKDGQCGSPLVSTRDGFIVGIHSASNFTNTNNYFTSVPKNFMELLTNQEAQQWVSGWRLNADSVLWGGHKVFMVKPEEPFQPVKEATQL [N53C]	–	0.06	–	0.0759	0.0666	–	–	0.0565	0.0684	–	0.0518	0.0586	–	0.0592	0.0623	–	–	0.0424	0.0745
MGESLFKGPRDYNPISSSICHLTNESDGHTTSLYGIGFGPFIITNKHLFRRNSGTLVVQSLHGVFKVKDTTTLQQHLVDGRDMIIIRMPKDFPPFPQKLKFREPQREERICLVTTNFQTKSMSSMVSDTSCTFPSGDGIFWKHWIQTKDGQCGSPLVSTRDGFIVGIHSASNFTNTNNYFTSVPKNFMELLTNQEAQQWVSGWRLNADSVLWGGHKVFMVKPEEPFQPVKEATQL [N53S]	–	0.0667	0.0534	0.0624	0.05	0.0372	0.0684	0.0574	–	–	0.0517	0.0568	0.0565	0.0622	0.0653	0.0468	–	0.0641	–
MGESLFKGPRDYNPISSSICHLTNESDIHTTSLYGIGFGPFIITNKHLFRRNNGTLVVQSLHGVFKVKDTTTLQQHLVDGRDMIIIRMPKDFPPFPQKLKFREPQREERICLVTTNFQTKSMSSMVSDTSCTFPSGDGIFWKHWIQTKDGQCGSPLVSTRDGFIVGIHSASNFTNTNNYFTSVPKNFMELLTNQEAQQWVSGWRLNADSVLWGGHKVFMVKPEEPFQPVKEATQL [G28I]	–	0.0518	0.0611	0.0622	0.0696	0.0596	0.0665	0.0586	0.0598	–	0.0602	0.0612	0.0744	0.0533	0.0669	–	0.0535	0.0631	0.0711
